Among the data in the antibiotic and cytotoxicity screens of Wong et al. (2023) are cytotoxicity call and growth inhibition call values, retold here.

The list shows a part of the results.

One test has as its system HSkMC. In words: cytotoxicity call (relative viability < 0.9). The settings on record: 10 µM.
Another test has as its system HepG2. In words: cytotoxicity call (relative viability < 0.9). The settings on record: 10 µM.
The test system of another test is S. aureus RN4220. In words: growth inhibition call (relative growth <= 0.2). Conditions: 50 µM.

For `Cc1ccc(S(=O)(=O)Nc2ccc3c(c2)C(=O)N([C@H](C)CO)C[C@H](C)[C@@H](CN(C)Cc2ccccc2)OCCCC[C@@H](C)O3)cc1`, the cytotoxicity call in the test on HSkMC and in the test with HepG2 was “inactive” in each case. The growth inhibition call in the test with S. aureus RN4220 was “inactive”.

Regarding `C[C@@H]1CN([C@@H](C)CO)S(=O)(=O)c2ccc(C#CCN(C)C)cc2O[C@H]1CN(C)C(=O)C1CCCCC1`, the cytotoxicity call in the test on HSkMC and with HepG2 was “inactive” each time. Further, the growth inhibition call in the test with S. aureus RN4220 is “inactive”.

Regarding `CN(C)c1cc(CN)ccn1`, the cytotoxicity call in the test on HSkMC and in the test on HepG2 was “inactive” in each case. Moreover, in the test on S. aureus RN4220, the growth inhibition call was “inactive”.

Regarding `O=c1[nH]cc(S(=O)(=O)N2CCN(c3ccccc3F)CC2)c(=O)[nH]1`, the cytotoxicity call in the test with HSkMC and in the test with HepG2 was “inactive” in each case. Besides, the growth inhibition call in the test with S. aureus RN4220 is “inactive”.

In the case of `COCC#Cc1ccc2c(c1)O[C@@H](CN(C)C(=O)c1ccccc1)[C@@H](C)CN([C@@H](C)CO)S2(=O)=O`, the cytotoxicity call in the test with HSkMC and in the test on HepG2 was “inactive” in each case. The growth inhibition call in the test on S. aureus RN4220 was “inactive”.

Take `C[C@@H]1CN([C@H](C)CO)C(=O)Cc2cc(NC(=O)C3CCCCC3)ccc2O[C@H]1CN(C)S(=O)(=O)c1cn(C)cn1`: the cytotoxicity call in the test with HSkMC and in the test with HepG2 was “inactive” each time. In addition, in the test on S. aureus RN4220, the growth inhibition call is “inactive”.

Consider `CC(C)NC(=O)N[C@@H]1C=C[C@H](CC(=O)NCCN2CCCC2)O[C@H]1CO`, for which the cytotoxicity call in the test with HSkMC and in the test with HepG2 was “inactive” in each case. Also, the growth inhibition call in the test with S. aureus RN4220 was “inactive”.

Take `Cc1noc(C)c1NC(=O)N(C)C[C@@H]1Oc2ccc(NC(=O)c3ccncc3)cc2C(=O)N([C@@H](C)CO)C[C@H]1C`: the cytotoxicity call in the test with HSkMC and in the test with HepG2 was “inactive” throughout. Besides, the growth inhibition call in the test with S. aureus RN4220 is “inactive”.

In the case of `COc1ccc2c3c([nH]c2c1)[C@H](CO)N(C[C@]13CCN(CC1)C(=O)c1ccncc1)C(=O)c1ccncc1`, the cytotoxicity call in the test on HSkMC and with HepG2 was “inactive” throughout. In the test on S. aureus RN4220, the growth inhibition call is “inactive”.

For `CCS(=O)(=O)N[C@H]1CC[C@@H](CC(=O)NCc2ccccn2)O[C@H]1CO`, the cytotoxicity call with HSkMC and with HepG2 was “inactive” in each case. Besides, the growth inhibition call in the test on S. aureus RN4220 was “inactive”.

`CN1CCN(C(=O)C[C@@H]2CC[C@@H]3[C@H](COC[C@H](O)CN3C(=O)C3CCOCC3)O2)CC1`: the cytotoxicity call in the test on HSkMC and in the test with HepG2 was “inactive” each time. In addition, in the test with S. aureus RN4220, the growth inhibition call was “inactive”.

For the compound `COc1ccc(S(=O)(=O)N(C)C[C@H]2Oc3c(NC(=O)c4cc(C)nn4C)cccc3C(=O)N([C@@H](C)CO)C[C@H]2C)cc1`, the cytotoxicity call in the test on HSkMC and in the test on HepG2 was “inactive” each time. The growth inhibition call in the test on S. aureus RN4220 is “inactive”.

Take `C[C@H](CO)N1C[C@H](C)[C@H](CN(C)Cc2ccccn2)Oc2cc(C#CCN(C)C)ccc2S1(=O)=O`: the cytotoxicity call in the test on HSkMC and with HepG2 was “inactive” in each case. Moreover, the growth inhibition call with S. aureus RN4220 was “inactive”.

As for `C[C@H]1CN([C@@H](C)CO)C(=O)c2cccc(NC(=O)Nc3cccc4ccccc34)c2O[C@H]1CN(C)C(=O)Nc1ccc2c(c1)OCO2`, the cytotoxicity call with HSkMC and in the test on HepG2 was “inactive” throughout. Besides, the growth inhibition call with S. aureus RN4220 was “inactive”.

Turning to `C[C@H]1CN([C@@H](C)CO)C(=O)c2cc(NC(=O)Nc3ccc(C(F)(F)F)cc3)ccc2O[C@H]1CN(C)C(=O)Nc1ccc2c(c1)OCO2`, the cytotoxicity call in the test with HSkMC and in the test with HepG2 was “inactive” throughout. Besides, the growth inhibition call in the test with S. aureus RN4220 is “inactive”.

Regarding `C[C@@H]1CCCCO[C@H](CN(C)C(=O)NC2CCCCC2)[C@@H](C)CN([C@H](C)CO)C(=O)c2cc(NC(=O)Cc3ccccc3)ccc2O1`, the cytotoxicity call with HSkMC and in the test with HepG2 was “inactive” throughout. In addition, the growth inhibition call in the test on S. aureus RN4220 was “inactive”.

As for `CC1(C)S[C@H]2[C@@H](NC(=O)[C@@H](NC(=O)N3CCN(S(C)(=O)=O)C3=O)c3ccccc3)C(=O)N2[C@@H]1C(=O)O`, the cytotoxicity call in the test on HSkMC and in the test with HepG2 was “inactive” throughout. In addition, the growth inhibition call in the test with S. aureus RN4220 was “active”.

As to `C[C@H]1CCCCO[C@H](CN(C)S(=O)(=O)c2ccc(F)cc2)[C@@H](C)CN([C@@H](C)CO)C(=O)c2cc(NC(=O)Nc3ccc(F)cc3)ccc2O1`, the cytotoxicity call in the test on HSkMC and in the test on HepG2 was “inactive” each time. The growth inhibition call with S. aureus RN4220 is “inactive”.

With `Cc1c[nH]cnc1=O`, the cytotoxicity call in the test with HSkMC and with HepG2 was “inactive” in each case. Besides, the growth inhibition call in the test with S. aureus RN4220 is “inactive”.

Take `Cc1noc(C)c1NC(=O)Nc1ccc2c(c1)C(=O)N([C@@H](C)CO)C[C@H](C)[C@@H](CN(C)Cc1ccc(Oc3ccccc3)cc1)O2`: the cytotoxicity call with HSkMC and with HepG2 was “inactive” each time. Also, the growth inhibition call in the test with S. aureus RN4220 was “inactive”.

On to `O=C(NN=Cc1ccc([N+](=O)[O-])o1)c1ccc(O)cc1`, for which the cytotoxicity call in the test on HSkMC was “inactive”. For the same compound, the cytotoxicity call in the test with HepG2 is “active”. Moreover, the growth inhibition call with S. aureus RN4220 is “inactive”.

Consider `C[C@H](CO)N1C[C@H](C)[C@H](CN(C)Cc2ccc(-c3ccccc3)cc2)Oc2ccc(NS(=O)(=O)c3ccc(F)cc3)cc2C1=O`, for which the cytotoxicity call in the test on HSkMC and in the test on HepG2 was “inactive” in each case. The growth inhibition call in the test on S. aureus RN4220 was “inactive”.

For `C[C@H]1CN([C@@H](C)CO)C(=O)c2ccccc2-c2ccccc2CO[C@@H]1CN(C)C(=O)Nc1cccc(C(F)(F)F)c1`, the cytotoxicity call with HSkMC and with HepG2 was “inactive” in each case. In addition, the growth inhibition call with S. aureus RN4220 is “inactive”.

For `COc1ccc(S(=O)(=O)Nc2ccc3c(c2)C(=O)N([C@H](C)CO)C[C@H](C)[C@H](CN(C)Cc2ccc(Cl)c(Cl)c2)OCCCC[C@@H](C)O3)cc1`, in the test on HSkMC (human skeletal muscle cells), the cytotoxicity call is “inactive”. Also, the cytotoxicity call in the test with HepG2 was “active”. Moreover, the growth inhibition call in the test on S. aureus RN4220 is “inactive”.

Take `Cc1noc(C)c1NC(=O)Nc1ccc2c(c1)CC(=O)N([C@H](C)CO)C[C@H](C)[C@H](CN(C)Cc1ccc(Cl)c(Cl)c1)O2`: the cytotoxicity call in the test with HSkMC and in the test on HepG2 was “inactive” each time. Moreover, in the test on S. aureus RN4220, the growth inhibition call is “inactive”.

Regarding `C[C@@H]1CN([C@@H](C)CO)C(=O)c2cccc(NC(=O)NC3CCCCC3)c2O[C@H]1CN(C)Cc1ccc(Cl)c(Cl)c1`, the cytotoxicity call with HSkMC and with HepG2 was “inactive” throughout. The growth inhibition call in the test with S. aureus RN4220 was “inactive”.

With `O=C(O)CCNC(=O)c1ccccc1`, the cytotoxicity call with HSkMC and in the test on HepG2 was “inactive” throughout. Further, the growth inhibition call in the test with S. aureus RN4220 was “inactive”.

Regarding `C[C@@H]1CN([C@@H](C)CO)C(=O)Cc2cc(NC(=O)Cn3cnnn3)ccc2O[C@H]1CN(C)CC1CC1`, the cytotoxicity call in the test with HSkMC and in the test with HepG2 was “inactive” throughout. Moreover, in the test on S. aureus RN4220, the growth inhibition call is “inactive”.

On to `CN1C(=O)[C@H]2[C@H](C1=O)[C@H]1C=C(c3ccc(CO)cc3)[C@@H]2[C@H](c2cccs2)N1Cc1cccc(OC(F)(F)F)c1`, for which the cytotoxicity call with HSkMC and with HepG2 was “inactive” in each case. For the same compound, the growth inhibition call in the test with S. aureus RN4220 is “active”.
